Results published in PubChem BioAssay (NCI).
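Dose response: 5 concentrations. Exposure: 48 h. Format: 96-well plates. Endpoint: linear interpolation; highest concentration if not reached. GI50 marks 50% less growth. TGI denotes the concentration required for complete inhibition of growth.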

Test system: NCI-H322M lung
Experiment: NCI tumour cell line growth inhibition, 48 h

Compound O=C(NCCCCCCCCCC[P+](c1ccccc1)(c1ccccc1)c1ccccc1)c1ccc(-n2nc(-c3ccccc3O)nc2-c2ccccc2O)cc1 has a GI50 of 175 nM and a TGI of 1020 nM.
